The list shows a part of the results. Most values come without repeats; read them as rough.
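Note: cell number obtained by counting DAPI-stained nuclei in high-throughput microscope images with image analysis software, screen run in 1,536-well plates.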

The first assay has as its system LB2518-MEL. As to the kind of experiment: cell count relative to DMSO control; melanoma cells; higher = more viable cells. The following applies: library dose: low library concentration; 72 h.
In turn, `CCN(CC)CCNC(=O)c1c(C)[nH]c(/C=C2\C(=O)Nc3ccc(F)cc32)c1C` [sunitinib] + CC(=O)c1c(C)c2cnc(Nc3ccc(N4CCNCC4)cn3)nc2n(C2CCCC2)c1=O [palbociclib] (first compound 0.4 µM, partner dose 0.04 µM) had a cell count of 87.2%. Take `C[C@]1(O)C[C@@H](c2nc(-c3ccc4ccc(-c5ccccc5)nc4c3)c3c(N)nccn32)C1` + CNC(=O)c1cc(Oc2ccc(NC(=O)Nc3ccc(Cl)c(C(F)(F)F)c3)cc2)ccn1 [sorafenib] (first compound 0.4 µM, partner dose 0.4 µM): the cell count turned out to be 102%.

`Cn1cnc2c(F)c(Nc3ccc(Br)cc3Cl)c(C(=O)NOCCO)cc21` [selumetinib] + COc1ccc(Cl)c(Nc2nc3ccccc3nc2NS(=O)(=O)c2cccc(NC(=O)C(C)(C)N)c2)c1 [XL147] (first compound 0.015 µM, partner dose 0.8 µM) came in with a cell count of 57%.

Compound `Cn1cnc2c(F)c(Nc3ccc(Br)cc3Cl)c(C(=O)NOCCO)cc21` [selumetinib] + CN(c1ncccc1CNc1nc(Nc2ccc3c(c2)CC(=O)N3)ncc1C(F)(F)F)S(C)(=O)=O [PF562271] (first compound 0.015 µM, partner dose 0.08 µM) returned a cell count of 65.4%. Same read-out and setting: the figure for `C[C@]1(O)C[C@@H](c2nc(-c3ccc4ccc(-c5ccccc5)nc4c3)c3c(N)nccn32)C1` + CCCCCCCCc1ccc(CCC(N)(CO)CO)cc1 [fingolimod] (first compound 0.4 µM, partner dose 2 µM) is 90.4%; for `Cn1cnc2c(F)c(Nc3ccc(Br)cc3Cl)c(C(=O)NOCCO)cc21` [selumetinib] + CCCCCCCCc1ccc(CCC(N)(CO)CO)cc1 [fingolimod] (first compound 0.015 µM, partner dose 2 µM) it is 58.3%. Still for that read-out and setting: the figure for `CCN(CC)CCNC(=O)c1c(C)[nH]c(/C=C2\C(=O)Nc3ccc(F)cc32)c1C` [sunitinib] + CN1CCN(c2ccc3nc(-c4c(N)c5c(F)cccc5[nH]c4=O)[nH]c3c2)CC1 [Dovitinib] (first compound 0.4 µM, partner dose 0.1 µM) is 82.4%; for `Cn1cnc2c(F)c(Nc3ccc(Br)cc3Cl)c(C(=O)NOCCO)cc21` [selumetinib] + Cn1c(Nc2ccc(C(F)(F)F)cc2)nc2cc(Oc3ccnc(-c4ncc(C(F)(F)F)[nH]4)c3)ccc21 [CHIR265] (first compound 0.015 µM, partner dose 0.08 µM) it is 41.6%; for `COc1cc([C@@H]2c3cc4c(cc3[C@@H](O[C@@H]3O[C@@H]5CO[C@@H](C)O[C@H]5[C@H](O)[C@H]3O)[C@H]3COC(=O)[C@H]23)OCO4)cc(OC)c1O` [etoposide] + O=C(Nc1cc(C(F)(F)F)cc(C(F)(F)F)c1)c1cc(Cl)ccc1O [IMD0354] (first compound 0.02 µM, partner dose 0.016 µM) it is 96%. On the same count and under the same terms, the figure for `CCN(CC)CCNC(=O)c1c(C)[nH]c(/C=C2\C(=O)Nc3ccc(F)cc32)c1C` [sunitinib] + CC(=O)O[C@@]12CO[C@@H]1C[C@H](O)[C@@]1(C)C(=O)[C@H](O)C3=C(C)[C@@H](OC(=O)[C@H](O)[C@@H](NC(=O)OC(C)(C)C)c4ccccc4)C[C@@](O)([C@@H](OC(=O)c4ccccc4)[C@H]21)C3(C)C [Docetaxel] (first compound 0.4 µM, partner dose 0.0001 µM) is 61.5%; for `C[C@]1(O)C[C@@H](c2nc(-c3ccc4ccc(-c5ccccc5)nc4c3)c3c(N)nccn32)C1` + CN1CCN(c2ccc3nc(-c4c(N)c5c(F)cccc5[nH]c4=O)[nH]c3c2)CC1 [Dovitinib] (first compound 0.4 µM, partner dose 0.1 µM) it is 66.3%. The compound `C[C@]1(O)C[C@@H](c2nc(-c3ccc4ccc(-c5ccccc5)nc4c3)c3c(N)nccn32)C1` + CC(C)C[C@H](NC(=O)[C@H](Cc1ccccc1)NC(=O)c1cnccn1)B(O)O [Bortezomib] (first compound 0.4 µM, partner dose 0.001 µM) registered a cell count of 82.5%.

The test system of another assay is LOXIMVI. The assay is described as above. As to conditions: library dose: low library concentration; 72 h.
As for `CCN(CC)CCNC(=O)c1c(C)[nH]c(/C=C2\C(=O)Nc3ccc(F)cc32)c1C` [sunitinib] + Clc1ccc(Nc2nnc(Cc3ccncc3)c3ccccc23)cc1 [vatalanib] (first compound 0.4 µM, partner dose 2 µM), the cell count was found to be 95.7%.

`COc1cc([C@@H]2c3cc4c(cc3[C@@H](O[C@@H]3O[C@@H]5CO[C@@H](C)O[C@H]5[C@H](O)[C@H]3O)[C@H]3COC(=O)[C@H]23)OCO4)cc(OC)c1O` [etoposide] + Cn1c(Nc2ccc(C(F)(F)F)cc2)nc2cc(Oc3ccnc(-c4ncc(C(F)(F)F)[nH]4)c3)ccc21 [CHIR265] (first compound 0.02 µM, partner dose 0.08 µM): the cell count is 88.8%. The same measure, in the same setting: the figure for `CCN(CC)CCNC(=O)c1c(C)[nH]c(/C=C2\C(=O)Nc3ccc(F)cc32)c1C` [sunitinib] + O=C(O)[C@@H]1[O][Sb](=[O])([O][Sb]2(=[O])[O][C@H]([C@H](O)CO)[C@H](O)[C@H](C(=O)O)[O]2)[O][C@H]([C@H](O)CO)[C@@H]1O [stibogluconate] (first compound 0.4 µM, partner dose 2 µM) is 68.4%. Still for that read-out and setting: as for `COc1cc([C@@H]2c3cc4c(cc3[C@@H](O[C@@H]3O[C@@H]5CO[C@@H](C)O[C@H]5[C@H](O)[C@H]3O)[C@H]3COC(=O)[C@H]23)OCO4)cc(OC)c1O` [etoposide] + Cc1nc(Nc2ncc(C(=O)Nc3c(C)cccc3Cl)s2)cc(N2CCN(CCO)CC2)n1 [dasatanib] (first compound 0.02 µM, partner dose 0.004 µM), the figure is 50.3%; as for `COc1cc([C@@H]2c3cc4c(cc3[C@@H](O[C@@H]3O[C@@H]5CO[C@@H](C)O[C@H]5[C@H](O)[C@H]3O)[C@H]3COC(=O)[C@H]23)OCO4)cc(OC)c1O` [etoposide] + O=c1[nH]nc(Sc2ncc([N+](=O)[O-])s2)n1-c1ccc2c(c1)OCCO2 [BI78D3] (first compound 0.02 µM, partner dose 0.2 µM), 89.4%; as for `Cn1cnc2c(F)c(Nc3ccc(Br)cc3Cl)c(C(=O)NOCCO)cc21` [selumetinib] + Nc1nc(F)nc2c1ncn2[C@@H]1O[C@H](CO)[C@@H](O)[C@@H]1O [fludarabine] (first compound 0.015 µM, partner dose 0.2 µM), 138%. Same read-out and setting: as for `Cn1cnc2c(F)c(Nc3ccc(Br)cc3Cl)c(C(=O)NOCCO)cc21` [selumetinib] + Clc1ccc(Nc2nnc(Cc3ccncc3)c3ccccc23)cc1 [vatalanib] (first compound 0.015 µM, partner dose 2 µM), the figure is 130%.

In the case of `CCN(CC)CCNC(=O)c1c(C)[nH]c(/C=C2\C(=O)Nc3ccc(F)cc32)c1C` [sunitinib] + O=C(O)c1ccc2c(c1)nc(Nc1cccc(Cl)c1)c1ccncc12 [CX4945] (first compound 0.4 µM, partner dose 0.4 µM), the cell count was found to be 107%.

The compound `C[C@]1(O)C[C@@H](c2nc(-c3ccc4ccc(-c5ccccc5)nc4c3)c3c(N)nccn32)C1` + NC1(c2ccc(-c3nc4ccn5c(=O)[nH]nc5c4cc3-c3ccccc3)cc2)CCC1 [MK2206] (first compound 0.4 µM, partner dose 0.4 µM) had a cell count of 90%. On the same count and under the same terms, as for `C[C@]1(O)C[C@@H](c2nc(-c3ccc4ccc(-c5ccccc5)nc4c3)c3c(N)nccn32)C1` + CCCS(=O)(=O)Nc1ccc(F)c(C(=O)c2c[nH]c3ncc(Cl)cc23)c1F [PLX4720] (first compound 0.4 µM, partner dose 0.08 µM), the figure is 60.5%; as for `C[C@]1(O)C[C@@H](c2nc(-c3ccc4ccc(-c5ccccc5)nc4c3)c3c(N)nccn32)C1` + C[C@]1(c2nc3c(C(N)=O)cccc3[nH]2)CCCN1 [Veliparib] (first compound 0.4 µM, partner dose 1.4 µM), 89.6%.

For `COc1cc([C@@H]2c3cc4c(cc3[C@@H](O[C@@H]3O[C@@H]5CO[C@@H](C)O[C@H]5[C@H](O)[C@H]3O)[C@H]3COC(=O)[C@H]23)OCO4)cc(OC)c1O` [etoposide] + CN(c1ncccc1CNc1nc(Nc2ccc3c(c2)CC(=O)N3)ncc1C(F)(F)F)S(C)(=O)=O [PF562271] (first compound 0.02 µM, partner dose 0.08 µM), the cell count came to 107%. On to `C[C@]1(O)C[C@@H](c2nc(-c3ccc4ccc(-c5ccccc5)nc4c3)c3c(N)nccn32)C1` + Clc1ccc(Nc2nnc(Cc3ccncc3)c3ccccc23)cc1 [vatalanib] (first compound 0.4 µM, partner dose 2 µM), for which the cell count was determined as 59.8%.

Take `COc1cc([C@@H]2c3cc4c(cc3[C@@H](O[C@@H]3O[C@@H]5CO[C@@H](C)O[C@H]5[C@H](O)[C@H]3O)[C@H]3COC(=O)[C@H]23)OCO4)cc(OC)c1O` [etoposide] + O=C(O)[C@@H]1[O][Sb](=[O])([O][Sb]2(=[O])[O][C@H]([C@H](O)CO)[C@H](O)[C@H](C(=O)O)[O]2)[O][C@H]([C@H](O)CO)[C@@H]1O [stibogluconate] (first compound 0.02 µM, partner dose 2 µM): the cell count came to 93.5%.

As for `CCN(CC)CCNC(=O)c1c(C)[nH]c(/C=C2\C(=O)Nc3ccc(F)cc32)c1C` [sunitinib] + Cn1c(Nc2ccc(C(F)(F)F)cc2)nc2cc(Oc3ccnc(-c4ncc(C(F)(F)F)[nH]4)c3)ccc21 [CHIR265] (first compound 0.4 µM, partner dose 0.08 µM), the cell count was 139%.

The values above are taken from the supplement of paper PMC4604168 (melanoma cell lines).
